From the supplement of paper PMC3334620
In all, about 33,000 sequences were measured (“E-score (-0.5 to 0.5)”: median about -0.021, highest 2% from about 0.32 on). The list shows a part of the results.

molecular target: T1, Zap1 (UniProt P47043); experiment: PBM E-score (8-mer binding enrichment) (E-score (-0.5 to 0.5)); higher = stronger / more preferred TF binding; most listed sequences are background and not binding sites; settings: protein concentration: 200 nM; construct: GST-full length
T1 sequence: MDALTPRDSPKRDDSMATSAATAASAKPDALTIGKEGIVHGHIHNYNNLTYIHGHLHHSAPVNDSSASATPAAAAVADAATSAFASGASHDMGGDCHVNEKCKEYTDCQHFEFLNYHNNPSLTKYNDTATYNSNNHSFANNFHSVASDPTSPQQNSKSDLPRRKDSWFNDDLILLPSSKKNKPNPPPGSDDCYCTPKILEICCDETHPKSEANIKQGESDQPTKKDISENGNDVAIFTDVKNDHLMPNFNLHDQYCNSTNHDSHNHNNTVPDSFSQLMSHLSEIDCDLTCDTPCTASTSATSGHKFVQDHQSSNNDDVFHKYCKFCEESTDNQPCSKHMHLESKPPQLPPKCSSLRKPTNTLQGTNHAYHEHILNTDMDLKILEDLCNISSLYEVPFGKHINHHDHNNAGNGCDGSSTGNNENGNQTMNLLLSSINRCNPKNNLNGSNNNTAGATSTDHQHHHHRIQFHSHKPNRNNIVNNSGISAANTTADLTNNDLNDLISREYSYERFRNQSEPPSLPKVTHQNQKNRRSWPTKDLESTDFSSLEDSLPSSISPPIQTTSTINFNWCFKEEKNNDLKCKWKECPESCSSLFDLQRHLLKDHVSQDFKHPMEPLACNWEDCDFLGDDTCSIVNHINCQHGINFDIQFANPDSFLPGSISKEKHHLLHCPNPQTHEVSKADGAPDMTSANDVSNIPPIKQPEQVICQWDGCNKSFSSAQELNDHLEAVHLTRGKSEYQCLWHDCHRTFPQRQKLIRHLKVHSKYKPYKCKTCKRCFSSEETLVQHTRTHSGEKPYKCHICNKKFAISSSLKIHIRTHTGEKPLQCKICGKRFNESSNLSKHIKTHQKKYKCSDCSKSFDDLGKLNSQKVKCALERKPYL
How it was run: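 Universal all-10-mer Agilent arrays, double-stranded by primer extension on fresh or once-stripped slides, were probed with about 100-200 nM GST-tagged yeast transcription factors made by PURExpress. Fluorescent anti-GST detected bound protein, and masliner normalised the scans. E-scores from the Universal PBM Analysis Suite were given to each ungapped eight-base word pooled with its reverse complement.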

Sequence | PBM E-score
AATGCGCA | 0.0233
TGGAACAA | 0.0799
CTTCGCAC | -0.0742
GTCTCATA | -0.0428
ACAAGAGC | -0.183
GTGCGTAA | 0.0268
CAGACAGC | -0.0475
AATTCCTG | -0.124
ATGTATTG | 0.0156
CAGGTATC | 0.138
TCACCACA | 0.17
ATTACAAA | 0.113
AACAATAC | 0.124
CATTTTTC | 0.0692
AGACCCTA | 0.298
CAAGCCAC | -0.144
ATTCAGCG | -0.0993
AAGTCTTC | -0.063
AAATACGC | -0.0673
AAATCCGC | -0.248
CGGCACAA | -0.0187
ACAATTCG | -0.0223

Sequence | PBM E-score
AGATGTTC | -0.158
GACCCACA | 0.308
CCGCCCGA | -0.0384
ATACGAAA | 0.173
ACCAGGGG | -0.0398
AAATCGAG | 0.051
CGGCCTTC | 0.135
CCATGTAC | 0.0901
ACTAATAC | 0.23
GGTTTGTA | 0.119
CGCTGCAC | -0.174
CTGTTAAA | 0.0123
GCCGTAAC | 0.287
ATGGCATC | -0.183
GGAGCGAA | -0.175
TATTAAGA | 0.0188
ATCTATTC | 0.0436
GTATTTGA | 0.0608
AGATTTCA | 0.00329
CCTGTTCC | -0.128
ACGGGATG | -0.174
CGTCGCAC | -0.0967

Sequence | PBM E-score
CGGTACGC | -0.129
GGGTCACA | 0.398
GGGCAGTA | -0.146
GAACCACA | 0.102
CGCCATAA | 0.0925
GAGAACAC | -0.079
TCGAAGCA | -0.224
ACCCAGAT | 0.19
ATAAGTCC | -0.00375
GACGTGAC | -0.0566
CGGACGTC | -0.169
AGAATGTC | -0.128
TACGGACA | 0.0932
ATCTTGTA | 0.0449
TAAGCCAA | 0.11
TACACGCA | -0.176
ACACAATA | 0.192
GACAGTGA | -0.0563
GAAAGCGA | -0.0191
AACTGCTA | -0.0604
AGCCTCTG | -0.219
AACTAAGA | 0.0908

Sequence | PBM E-score
ACATCCAT | -0.0784
GATCTAGA | 0.0249
CAGGTGTC | -0.0194
CCCAAAGA | 0.161
CATTATCA | 0.0485
ACCGCTAA | 0.247
AGACAATA | 0.0476
AGCGAAAG | -0.0949
AATTTAAT | 0.145
GCGAGAGC | -0.0306
GCAAATGA | -0.00579
CAAATGCA | 0.00501
AATTTGCT | -0.0749
TAGTATGA | 0.215
CGAAAGAG | -0.0292
CCGAGCCA | -0.0873
ATATTGGA | -0.014
TCAGGAAA | -0.0306
CTCGGTCA | 0.00894
AAGTGATC | 0.131
